# From PubChem BioAssay AID624170 (National Center for Advancing Translational Sciences (NCATS), 2012)
# About 850 (0.21%) of roughly 410,000 compounds were called active. Inconclusive means that the source gave no clear call. Such entries were picked first, then a sample of the others. Calls follow the shape of the dose curve; as a rule, active = well fitted inhibition curve with a large enough effect; inconclusive = small, poorly fitted or top-dose-only effect, or another doubt; inactive = no such curve, though single readings can be large or run the other way. Potencies of inconclusive entries are left out as doubtful fits.
# Target: Glutaminase kidney isoform, mitochondrial (Homo sapiens) (UniProt O94925)
# Sequence of UniProt O94925 (O94925 whole entry, looked up, canonical isoform): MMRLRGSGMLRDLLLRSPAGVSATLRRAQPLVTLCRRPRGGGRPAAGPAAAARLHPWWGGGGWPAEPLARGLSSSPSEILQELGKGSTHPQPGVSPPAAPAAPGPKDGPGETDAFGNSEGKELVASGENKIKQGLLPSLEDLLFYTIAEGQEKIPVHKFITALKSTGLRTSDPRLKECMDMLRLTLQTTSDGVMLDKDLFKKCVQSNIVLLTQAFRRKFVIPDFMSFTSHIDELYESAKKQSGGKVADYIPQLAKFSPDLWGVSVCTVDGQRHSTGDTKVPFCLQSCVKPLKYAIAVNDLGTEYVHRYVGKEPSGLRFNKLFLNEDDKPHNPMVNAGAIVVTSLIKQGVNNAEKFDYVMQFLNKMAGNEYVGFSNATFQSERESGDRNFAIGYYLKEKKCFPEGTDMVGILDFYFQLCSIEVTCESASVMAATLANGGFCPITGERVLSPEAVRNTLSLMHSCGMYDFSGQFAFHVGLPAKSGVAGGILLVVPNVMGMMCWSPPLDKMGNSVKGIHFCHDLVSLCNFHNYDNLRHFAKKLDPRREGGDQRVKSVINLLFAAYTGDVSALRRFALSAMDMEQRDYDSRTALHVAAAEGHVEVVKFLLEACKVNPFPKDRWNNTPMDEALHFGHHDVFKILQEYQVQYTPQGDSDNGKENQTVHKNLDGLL
# Assay: qHTS for Inhibitors of Glutaminase (GLS)
# Conditions: GLS enzymatic activity, qHTS titration; series mostly up to 45.5 µM
# How it was run: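 Two-point fluorescence kinetic (t0, 30 min RT) for hKGA; glutamate detected via glutamate oxidase–HRP–Amplex Red. Substrate: 1 mM L-glutamine solution; buffer 45 mM KH2PO4, pH 8.2.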
# Potency is read from the fitted curve at half-maximal effect; tags tell the direction and shape of the fitted curve.
row,Structure (SMILES),Potency
1,CCNc1c(NS(=O)(=O)c2ccc([N+](=O)[O-])cc2)c(=O)oc2ccccc12,"inconclusive [inhibitor, full curve]"
2,CO/N=C/NC(=O)c1ccc([N+](=O)[O-])c(CS(=O)(=O)c2ccc(Cl)cc2)c1,"inconclusive [inhibitor, single point]"
3,CCN1C(=O)/C(=C\c2cn(CCC#N)nc2-c2ccc(F)cc2)SC1=S,inactive
4,O/N=C1\CCCc2c1nc(-c1ccccc1F)n2O,"inconclusive [inhibitor, single point]"
5,OCc1ccccc1SSc1ccccc1CO,"inconclusive [inhibitor, full curve, poor fit]"
6,Cc1ccn2c(NC(C)(C)C)c(-c3cccs3)nc2c1,active: 6.31 µM
7,C=C(C)c1cccc(C(C)(C)NC(=O)NNC(=O)c2ccccc2O)c1,"inconclusive [inhibitor, single point]"
8,COc1cc(/C=C2/C(=O)NN(c3cccc(C)c3)C2=O)ccc1OC(=O)c1ccco1,"inconclusive [inhibitor, single point]"
9,COC(=O)c1cccc(/C=N/NC(N)=S)c1O,inactive
10,O=C(CSCc1ccccc1)NC1CCSC1=O (stereo unspecified),inactive
11,Cc1ccc(C)c2[nH]c(=O)c(C(c3nnnn3Cc3ccco3)N3CCc4ccccc4C3)cc12 (stereo unspecified),inactive
12,Cn1c2ccccc2c2nnc(NN)nc21,"inconclusive [inhibitor, single point]"
13,Cc1nn2c(=O)cc(COc3ccc(/C=C(\C#N)C(=O)Nc4ccc(F)cc4)cc3)nc2s1,"inconclusive [inhibitor, full curve]"
14,COc1ccc(N(C(=O)c2ccccc2)S(=O)(=O)c2cccs2)cc1,"inconclusive [inhibitor, single point]"
15,OC[C@@H]1CN(Cc2ccc3c(c2)OCO3)C[C@H](n2cnc3c(N4CCOCC4)ncnc32)O1,inactive
16,COc1cc(C(=O)OCC(=O)Nc2c(C)n(C)n(-c3ccccc3)c2=O)c([N+](=O)[O-])cc1OC,inactive
17,COc1ccc(/C(C)=N/N=C2/NC(=O)CC(C(=O)O)S2)cc1 (stereo unspecified),"inconclusive [inhibitor, single point]"
18,CCC(CC)CC1CN2CCc3cc(OC)c(OC)cc3C2CC1(O)CC (stereo unspecified),"inconclusive [inhibitor, single point]"
19,CCN1/C(=C/C=C/C=C/C=C/c2sc3ccccc3[n+]2CC)Sc2ccccc21,"inconclusive [inhibitor, single point]"
20,COc1ccc(/C=N/N=C/c2ccc(OC)c(O)c2)cc1O,"inconclusive [inhibitor, single point]"
21,Cc1ccc(S(=O)(=O)N(CC(=O)NN=C2CCN(C)CC2)c2ccc(F)cc2)cc1,"inconclusive [inhibitor, single point]"
22,C=CCOc1ccc(C2NC(=S)NC3=C2CCc2ccccc23)cc1 (stereo unspecified),"inconclusive [inhibitor, partial curve]"

row,Structure (SMILES),Potency
1,CCOc1ccc(C(=O)NC(=S)Nc2ccccc2N2CCC(C)CC2)cc1[N+](=O)[O-],inactive
2,CNC(=O)Cn1nc(-c2ccc(C)cc2)c2ccccc2c1=O,"inconclusive [inhibitor, single point]"
3,C#CCOCCOCCOCCNc1nc(N2CCN(C(=O)CCCCCCCCCCNC(=O)Cn3cc(CCCCCN)nn3)CC2)nc(N2CCN(C(=O)CCCCCCCCCCNC(=O)[C@@H](CCSC)n3cc(CCO)nn3)CC2)n1,"inconclusive [inhibitor, single point]"
4,O=C(Cc1cccs1)OCC(=O)c1ccco1,"inconclusive [inhibitor, single point]"
5,NC(=O)c1ccccc1NC(=O)CSc1cn[nH]n1,"inconclusive [inhibitor, partial curve, poor fit]"
6,Cc1ccc(-n2cccc2/C=C2\C(=N)N3N=C(c4ccco4)SC3=NC2=O)cc1,"inconclusive [inhibitor, single point]"
7,Cc1ccn2c(NC(=O)c3ccccc3)c(-c3ccccc3)nc2c1,"inconclusive [inhibitor, full curve, poor fit]"
8,COc1cc(/C=N/NC(=O)c2cccc(S(=O)(=O)N3CCCC3)c2)ccc1O,"inconclusive [inhibitor, partial curve, poor fit]"
9,Nc1ncnc2[nH]c(=S)[nH]c12,"inconclusive [inhibitor, single point]"
10,COC(=O)[C@H](CCSC)NC(=O)N1CCN(c2cccc(C(F)(F)F)c2)CC1,"inconclusive [inhibitor, single point]"
11,COc1ccc(C2(C(=O)Nc3ccc(C)cc3)CCOCC2)cc1,"inconclusive [inhibitor, single point]"
12,O=C(CN1CC[n+]2c(-c3cccs3)csc21)c1ccc(Br)cc1,"inconclusive [inhibitor, single point]"
13,O=C(Cn1ncc2ccsc2c1=O)N1CCN(c2ccccc2F)CC1,inactive
14,O=C1NC(=O)/C(=C\c2ccc(O)cc2O)S1,"inconclusive [inhibitor, single point]"
15,COc1ccc(C(CC(=O)NCc2ccccc2Cl)N2Cc3ccccc3C2=O)cc1OC (stereo unspecified),inactive
16,O=C(NCCc1ccccc1)c1noc2c1CCCCC2,"inconclusive [inhibitor, single point]"
17,O=c1cc(-c2ccccc2)n2c(SCc3c(F)cccc3Cl)nnc2[nH]1,inactive
18,N#C/C(=C\c1cc([N+](=O)[O-])ccc1Cl)C(N)=O,"inconclusive [inhibitor, single point]"
19,N#CC1=C2SCN(Cc3ccco3)CN2C(=O)CC1c1cccc2ccccc12 (stereo unspecified),"inconclusive [inhibitor, partial curve, poor fit]"
20,COc1ccc(C(=O)Nc2ccc(C(=O)OCc3cc(=O)n4nc(C5CC5)sc4n3)cc2)cc1,"inconclusive [inhibitor, full curve]"
21,COC(=O)CC1=NN(c2ccccc2)C(=O)C1,"inconclusive [inhibitor, single point]"
22,O=[N+]([O-])c1cc2oc3c(c2c(C=NCc2ccccc2)c1O)CCCC3,"inconclusive [inhibitor, partial curve, poor fit]"

row,Structure (SMILES),Potency
1,CCc1nnc(NC(=O)CSc2nnc(CNc3ccc(OC)cc3)n2C)s1,"inconclusive [inhibitor, partial curve, poor fit]"
2,CSc1nc(Cl)cc(Nc2ccc(O)cc2)n1,"inconclusive [inhibitor, partial curve]"
3,COc1ccc(NC(=O)CN(C)C(=O)c2cccc(-n3cccc3)c2)cc1,"inconclusive [inhibitor, single point]"
4,O=C(O)CSc1c2c(nc3cc(C(=O)N4CCOCC4)ccc13)CCCC2,inactive
5,O=C(O)CCC(NC(=O)C1CCCN1C(=O)OCc1ccccc1)C(=O)O (stereo unspecified),inactive
6,COc1ccc(C2CC2/C(=N/O)c2ccccc2)cc1 (stereo unspecified),"inconclusive [inhibitor, single point]"
7,Cc1ccc(Nc2c(-c3ccsc3)nc3c(C)cccn23)cc1,inactive
8,CCOc1ccc(NC(=S)NNC(=O)c2cc(Br)ccc2Cl)cc1,"inconclusive [inhibitor, partial curve]"
9,CNC(=S)NNC(=O)c1sc(-c2cc(C)on2)nc1C,"inconclusive [inhibitor, partial curve]"
10,CSc1nnc2c3c4c(sc3nc(-n3nc(C)cc3C)n12)COC(C)(C)C4,"inconclusive [inhibitor, single point]"
11,S=C(Nc1ccc2c(c1)OCCO2)Nc1ccccc1Cl,"inconclusive [inhibitor, single point]"
12,Cc1ccc(NC(=O)c2ccc3c(c2)C(=O)N(CC2CCCO2)C3=O)cc1C (stereo unspecified),inactive
13,Cc1cnc(NC(=O)c2ccccn2)s1,"inconclusive [inhibitor, single point]"
14,CC(C)(C)N1CSC(=S)N(Cc2ccccc2)C1,"inconclusive [inhibitor, partial curve, poor fit]"
15,CC(C)OC(=O)c1cc(NC(=O)C2C3C=CC(O3)C2C(=O)O)cc(C(=O)OC(C)C)c1 (stereo unspecified),inactive
16,CCCC(c1nnnn1Cc1ccc(F)cc1)N1CCN(CC)CC1 (stereo unspecified),"inconclusive [inhibitor, single point]"
17,O=c1[nH]n2c(=O)c3c([nH]c2c1N=Nc1cccc(Cl)c1)CCCC3,"inconclusive [inhibitor, single point]"
18,C#CCOCCOCCOCCNc1nc(N2CCN(C(=O)CCCCCCCCCCNC(=O)[C@H](CCCCN)n3cc(C)nn3)CC2)nc(N2CCN(C(=O)CCCCCCCCCCNC(=O)[C@@H]([C@H](C)O)n3cc(C)nn3)CC2)n1,"inconclusive [inhibitor, single point]"
19,COc1ccccc1CNC(=O)CCn1cnc2ccccc2c1=O,"inconclusive [inhibitor, partial curve, poor fit]"
20,Cn1c(SCC(=O)N2CCOCC2)nnc1-c1cccc(NC(=O)c2ccccc2F)c1,inactive
21,C=CCNc1oc(-c2cccs2)nc1S(=O)(=O)c1ccccc1,"inconclusive [inhibitor, single point]"
22,Cc1sc(=NC(=O)c2ccco2)n(C)c1-c1ccccc1,"inconclusive [inhibitor, single point]"
